Hit rate of the full screen: of about 310,000 compounds, about 2,200 (0.71%) showed an effect of 50% or more. Effects have a minus sign here. The list shows a part of the results.
Each compound was assayed against human ether-à-go-go-related gene (hERG) potassium channel (human, UniProt Q12809) (assay: primary screen, population patch clamp on CHO cells stably expressing hERG).
human ether-à-go-go-related gene (hERG) potassium channel, sequence (Q12809 whole entry, looked up): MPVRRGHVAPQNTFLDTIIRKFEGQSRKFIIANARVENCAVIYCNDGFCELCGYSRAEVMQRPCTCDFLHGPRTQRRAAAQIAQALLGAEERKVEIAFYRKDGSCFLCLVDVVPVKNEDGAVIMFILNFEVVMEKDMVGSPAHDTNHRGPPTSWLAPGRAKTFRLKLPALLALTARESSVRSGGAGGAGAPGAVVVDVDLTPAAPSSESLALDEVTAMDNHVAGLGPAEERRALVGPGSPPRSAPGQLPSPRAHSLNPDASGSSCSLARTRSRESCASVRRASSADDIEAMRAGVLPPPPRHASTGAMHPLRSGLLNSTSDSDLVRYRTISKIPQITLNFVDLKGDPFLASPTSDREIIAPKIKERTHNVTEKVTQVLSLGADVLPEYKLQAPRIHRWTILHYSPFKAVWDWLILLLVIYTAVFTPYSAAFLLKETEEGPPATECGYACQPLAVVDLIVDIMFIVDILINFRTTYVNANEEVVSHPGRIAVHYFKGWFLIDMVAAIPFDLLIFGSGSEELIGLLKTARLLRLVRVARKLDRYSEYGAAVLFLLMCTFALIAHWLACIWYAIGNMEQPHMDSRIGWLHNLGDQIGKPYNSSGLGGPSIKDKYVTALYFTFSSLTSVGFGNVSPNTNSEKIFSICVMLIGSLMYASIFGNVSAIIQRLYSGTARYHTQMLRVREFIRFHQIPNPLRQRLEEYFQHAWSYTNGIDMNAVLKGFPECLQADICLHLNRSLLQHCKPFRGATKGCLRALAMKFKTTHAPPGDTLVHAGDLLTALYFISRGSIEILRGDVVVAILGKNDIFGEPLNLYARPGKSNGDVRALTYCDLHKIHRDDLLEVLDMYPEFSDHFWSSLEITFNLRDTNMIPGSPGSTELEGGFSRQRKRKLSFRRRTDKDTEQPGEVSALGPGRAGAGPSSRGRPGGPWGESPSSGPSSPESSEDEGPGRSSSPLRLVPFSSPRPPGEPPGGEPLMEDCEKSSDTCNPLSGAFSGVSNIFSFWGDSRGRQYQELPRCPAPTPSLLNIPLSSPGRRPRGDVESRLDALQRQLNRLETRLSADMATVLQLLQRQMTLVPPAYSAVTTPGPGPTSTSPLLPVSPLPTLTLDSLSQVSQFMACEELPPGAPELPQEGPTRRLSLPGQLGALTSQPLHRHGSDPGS

SMILES	hERG current change (%, negative = inhibition) at 1uM [%]
CCSc1ncc(Cl)c(C(=O)Nc2ccccc2C)n1	5.18
COc1cccc(CNC(=O)CSc2ccc(-c3cccs3)nn2)c1	4.9
Cc1cnc(C)c(N2CCN(Cc3nc(-c4ccc(C)o4)oc3C)CC2)n1	8.17
CCOc1ccccc1NC(=O)N1CCN(S(C)(=O)=O)CC1	9.65
O=C(NC1CCCCC1)N(Cc1nc2ccccc2c(=O)[nH]1)C1CCCC1	4.03
COc1ccc(/C=C2/C(=O)N(c3c(F)c(F)c(F)c(F)c3F)N=C2C)cc1	9.9
CCN1CCN(C2CCCCC2NS(=O)(=O)c2ccc(Cl)cc2)CC1 (centres unmarked)	-36.1
NC(=O)c1ccc(NC(=O)COC(=O)c2n[nH]c3ccccc23)cc1	13.5
CCN(C(=O)COC(=O)/C(C#N)=C/c1ccc(OC)cc1)C1CCS(=O)(=O)C1 (centres unmarked)	17.6
Cc1cn(CCC(=O)Nc2ccc(N3CCOCC3)cc2)c2ccccc12	-2.97
CCn1c2ccccc2c2cc(NC(=O)CSc3nnc(-c4ccc(OC)c(OC)c4)n3N)ccc21	11.3
COc1ccc(CN2[C@@H](CC(=O)O)c3cc(F)ccc3S2(=O)=O)cc1	12.8
O=c1nc(N/N=C/c2ccccn2)cn[nH]1	3.36
COc1cc2cc(CN(Cc3nnnn3Cc3ccco3)C3CCCCC3)c(=O)[nH]c2cc1OC	1.72
CCN1CCN(c2oc(COc3ccc(Cl)cc3)nc2C#N)CC1	-79.3
O=S(=O)(Cc1ccc(Cl)cc1)C1CCCCC1O (centres unmarked)	11.5
COc1ccc(/C=N/Nc2nc(C)cc(-c3ccccc3)n2)cc1OC	4.53
COc1cccc(-c2c(-c3cc(OC)cc(OC)c3)n(C)c3ccc(-c4cccc5[nH]ccc45)cc23)c1	10.2
Cc1ccc2nc(Nc3ccc(C)c(Cl)c3)c3nncn3c2c1	10.7
Cc1ccc(C)c(N(CC(=O)NCc2ccc3c(c2)OCO3)C(=O)CCC(=O)Nc2ccccn2)c1	0.821
CCOc1ccc(Br)cc1S(=O)(=O)Nc1ccc(C(=O)OCC(=O)N(C)c2ccccc2)cc1	13.6
O=c1c(Cl)nc2cc(Cl)ccc2n1CCNc1ncc(C(F)(F)F)cc1Cl	12.9
Cn1c(CN2CCCC2)nc2cc(NS(=O)(=O)c3ccccc3)ccc21	1.78
